The supplement of paper PMC4604168 (melanoma cell lines)
The other results are listed elsewhere or left out. Repeats are few or missing, and single values can be far off.

Legend:
Experiment in all cases: cell count relative to DMSO control; melanoma cells; higher = more viable cells
Settings in all cases: library dose: low library concentration; 72 h
[1] = test system: MeWo
[2] = test system: RPMI7951
[3] = test system: RVH-421
[4] = test system: SkMel28
[5] = test system: SkMel2
[6] = test system: SkMel30
[7] = test system: SkMel5
[8] = test system: UACC257
[9] = test system: UACC62
[10] = test system: MZ2-MEL
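Note: cell number obtained by counting DAPI-stained nuclei in high-throughput microscope images with image analysis software, screen run in 1,536-well plates.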

| SMILES | cell count [1] [%] | cell count [2] [%] | cell count [3] [%] | cell count [4] [%] | cell count [5] [%] | cell count [6] [%] | cell count [7] [%] | cell count [8] [%] | cell count [9] [%] | cell count [10] [%] |
| --- | --- | --- | --- | --- | --- | --- | --- | --- | --- | --- |
| Cc1cn(-c2cc(NC(=O)c3ccc(C)c(Nc4nccc(-c5cccnc5)n4)c3)cc(C(F)(F)F)c2)cn1 [nilotinib] + CCc1ccc(CCOc2ccc(CC3SC(=O)NC3=O)cc2)nc1 [pioglitazone] (first compound 0.2 µM, partner dose 2 µM) | 120 | 90.7 | 124 | 102 | 86.5 | 91.6 | 101 | 101 | 89.1 |  |
| CC(C)C[C@H](NC(=O)[C@H](Cc1ccccc1)NC(=O)c1cnccn1)B(O)O [Bortezomib] + C#Cc1cccc(Nc2ncnc3cc(OCCOC)c(OCCOC)cc23)c1 [erlotinib] (first compound 0.001 µM, partner dose 0.8 µM) | 84.7 | 85.5 | 60.9 | 98.6 | 90.5 | 82.2 |  |  | 57.3 | 72.4 |
| Cc1cn(-c2cc(NC(=O)c3ccc(C)c(Nc4nccc(-c5cccnc5)n4)c3)cc(C(F)(F)F)c2)cn1 [nilotinib] + C[C@@H](N)c1ccc(C(=O)Nc2ccnc3[nH]ccc23)cc1 [RKI983] (first compound 0.2 µM, partner dose 0.4 µM) |  | 79.8 | 54.3 | 74.7 | 86.8 | 71.4 |  |  | 92.1 | 66.4 |
| CC(C)C[C@H](NC(=O)[C@H](Cc1ccccc1)NC(=O)c1cnccn1)B(O)O [Bortezomib] + Cn1cncc1[C@@](N)(c1ccc(Cl)cc1)c1ccc2c(c1)c(-c1cccc(Cl)c1)cc(=O)n2C [tipifarnib] (first compound 0.001 µM, partner dose 0.01 µM) | 86.4 | 46.8 | 50.2 | 80.5 |  | 88.5 | 95.2 | 83.9 | 72.7 |  |
| COc1ccc(C2=N[C@@H](c3ccc(Cl)cc3)[C@@H](c3ccc(Cl)cc3)N2C(=O)N2CCNC(=O)C2)c(OC(C)C)c1 [Nutlin-3] + O=C(O)[C@@H]1[O][Sb](=[O])([O][Sb]2(=[O])[O][C@H]([C@H](O)CO)[C@H](O)[C@H](C(=O)O)[O]2)[O][C@H]([C@H](O)CO)[C@@H]1O [stibogluconate] (first compound 0.1 µM, partner dose 2 µM) | 96.6 | 91.1 | 76.4 | 112 | 100 | 89.1 |  |  | 79.8 | 90.1 |
| Cn1c(=O)n(-c2ccc(C(C)(C)C#N)cc2)c2c3cc(-c4cnc5ccccc5c4)ccc3ncc21 + Nc1cccc2c1CN(C1CCC(=O)NC1=O)C2=O [lenalidomide] (first compound 0.004 µM, partner dose 1 µM) | 83.6 | 80.9 | 75 | 91.8 | 83.7 | 87.4 |  |  | 84.3 | 96.7 |
| COc1ccc(C2=N[C@@H](c3ccc(Cl)cc3)[C@@H](c3ccc(Cl)cc3)N2C(=O)N2CCNC(=O)C2)c(OC(C)C)c1 [Nutlin-3] + COCC[n+]1c2c(n(Cc3cnccn3)c1C)C(=O)c1ccccc1C2=O [YM155] (first compound 0.1 µM, partner dose 0.0004 µM) | 104 | 77.8 | 82.2 | 115 |  | 100 |  |  | 90.2 | 66.5 |
| Cn1c(=O)n(-c2ccc(C(C)(C)C#N)cc2)c2c3cc(-c4cnc5ccccc5c4)ccc3ncc21 + CC(C)(C)c1cnc(CSc2cnc(NC(=O)C3CCNCC3)s2)o1 [SNS-032] (first compound 0.004 µM, partner dose 0.01 µM) | 85.2 | 95.6 | 92.1 | 75.6 |  | 98.6 | 106 | 96.3 | 95.2 |  |
| Cc1cn(-c2cc(NC(=O)c3ccc(C)c(Nc4nccc(-c5cccnc5)n4)c3)cc(C(F)(F)F)c2)cn1 [nilotinib] + Nc1cccc2c1CN(C1CCC(=O)NC1=O)C2=O [lenalidomide] (first compound 0.2 µM, partner dose 1 µM) | 96.1 | 92.3 | 94.2 | 102 |  | 103 |  |  | 89.8 | 94 |
| Cn1c(=O)n(-c2ccc(C(C)(C)C#N)cc2)c2c3cc(-c4cnc5ccccc5c4)ccc3ncc21 + CO[C@H]1C[C@@H]2CC[C@@H](C)[C@@](O)(O2)C(=O)C(=O)N2CCCC[C@H]2C(=O)O[C@H]([C@H](C)C[C@@H]2CC[C@@H](OCCO)[C@H](OC)C2)CC(=O)[C@H](C)/C=C(\C)[C@@H](O)[C@@H](OC)C(=O)[C@H](C)C[C@H](C)/C=C/C=C/C=C/1C [everolimus] (first compound 0.004 µM, partner dose 0.02 µM) | 44.6 | 65.6 | 58.3 | 34.2 |  | 44.9 |  |  | 39.4 | 45.7 |
| CC(C)C[C@H](NC(=O)[C@H](Cc1ccccc1)NC(=O)c1cnccn1)B(O)O [Bortezomib] + CCN(CC)CCCCNc1ncc2cc(-c3cc(OC)cc(OC)c3)c(NC(=O)NC(C)(C)C)nc2n1 [PD173074] (first compound 0.001 µM, partner dose 0.1 µM) | 83.2 | 108 | 126 | 95 |  | 90 | 103 | 77.4 | 94.7 |  |
| Cc1cc(Nc2cc(N3CCN(C)CC3)nc(/C=C/c3ccccc3)n2)n[nH]1 + C=C(c1ccc(C(=O)O)cc1)c1cc2c(cc1C)C(C)(C)CCC2(C)C [Bexarotene] (first compound 0.04 µM, partner dose 2 µM) | 97.1 | 81.6 | 109 | 87.9 | 94.2 | 90.3 |  |  | 102 |  |
| Cn1c(=O)n(-c2ccc(C(C)(C)C#N)cc2)c2c3cc(-c4cnc5ccccc5c4)ccc3ncc21 + CN1CCN(c2ccc3nc(-c4c(N)c5c(F)cccc5[nH]c4=O)[nH]c3c2)CC1 [Dovitinib] (first compound 0.004 µM, partner dose 0.1 µM) | 79.9 | 96.3 | 99.9 | 74.1 |  | 99.8 |  |  | 103 | 95.3 |
| CC(C)C[C@H](NC(=O)[C@H](Cc1ccccc1)NC(=O)c1cnccn1)B(O)O [Bortezomib] + CO[C@H]1C[C@@H]2CC[C@@H](C)[C@@](O)(O2)C(=O)C(=O)N2CCCC[C@H]2C(=O)O[C@H]([C@H](C)C[C@@H]2CC[C@@H](OCCO)[C@H](OC)C2)CC(=O)[C@H](C)/C=C(\C)[C@@H](O)[C@@H](OC)C(=O)[C@H](C)C[C@H](C)/C=C/C=C/C=C/1C [everolimus] (first compound 0.001 µM, partner dose 0.02 µM) | 56 | 59 | 41.3 | 46.4 |  | 49.9 |  |  | 49.2 | 59.6 |
| Cn1c(=O)n(-c2ccc(C(C)(C)C#N)cc2)c2c3cc(-c4cnc5ccccc5c4)ccc3ncc21 + O=C(O)[C@@H]1[O][Sb](=[O])([O][Sb]2(=[O])[O][C@H]([C@H](O)CO)[C@H](O)[C@H](C(=O)O)[O]2)[O][C@H]([C@H](O)CO)[C@@H]1O [stibogluconate] (first compound 0.004 µM, partner dose 2 µM) | 101 | 88.6 | 112 | 102 | 89.4 | 93.6 |  |  | 107 |  |
| Cc1cc(Nc2cc(N3CCN(C)CC3)nc(/C=C/c3ccccc3)n2)n[nH]1 + CN(NC(=O)CC(=O)NN(C)C(=S)c1ccccc1)C(=S)c1ccccc1 [STA4783] (first compound 0.04 µM, partner dose 0.006 µM) | 87 | 115 | 110 | 93.7 |  | 98.4 | 75.4 | 75.4 | 90.7 |  |
| Cc1cc(Nc2cc(N3CCN(C)CC3)nc(/C=C/c3ccccc3)n2)n[nH]1 + NCC(=O)Nc1ccc(-n2nc(C(F)(F)F)cc2-c2ccc3c(ccc4ccccc43)c2)cc1 [OSU03012] (first compound 0.04 µM, partner dose 1 µM) | 65.1 | 125 | 102 | 75.1 | 92.7 | 48.2 | 107 | 95.2 | 81.5 |  |
| Cn1c(=O)n(-c2ccc(C(C)(C)C#N)cc2)c2c3cc(-c4cnc5ccccc5c4)ccc3ncc21 + CN(NC(=O)CC(=O)NN(C)C(=S)c1ccccc1)C(=S)c1ccccc1 [STA4783] (first compound 0.004 µM, partner dose 0.006 µM) | 71.3 | 84.7 | 95.9 | 76.7 |  | 73.6 | 76.2 | 92 | 79.9 |  |
| Cc1cc(Nc2cc(N3CCN(C)CC3)nc(/C=C/c3ccccc3)n2)n[nH]1 + CO[C@H]1C[C@@H]2CC[C@@H](C)[C@@](O)(O2)C(=O)C(=O)N2CCCC[C@H]2C(=O)O[C@H]([C@H](C)C[C@@H]2CC[C@@H](OCCO)[C@H](OC)C2)CC(=O)[C@H](C)/C=C(\C)[C@@H](O)[C@@H](OC)C(=O)[C@H](C)C[C@H](C)/C=C/C=C/C=C/1C [everolimus] (first compound 0.04 µM, partner dose 0.02 µM) | 61.2 | 74.3 | 84.3 | 53.4 |  | 63.7 |  |  | 66.4 | 69.2 |
| COc1ccc(C2=N[C@@H](c3ccc(Cl)cc3)[C@@H](c3ccc(Cl)cc3)N2C(=O)N2CCNC(=O)C2)c(OC(C)C)c1 [Nutlin-3] + CS(=O)(=O)c1ccc(C(=O)Nc2ccc(Cl)c(-c3ccccn3)c2)c(Cl)c1 [vismodegib] (first compound 0.1 µM, partner dose 1 µM) | 96.1 | 99.1 | 88.5 | 99.8 | 100 | 99.8 |  |  | 104 | 105 |
